{
  "source": "the supplement of paper PMC8728848",
  "binders": {"B1": {"name": "ZG-16 (Homo sapiens), O60844 (protein)", "chain": "IQARSSSYSGEYGSGGGKRFSHSGNQLDGPITALRVRVNTYYIVGLQVRYGKVWSDYVGGRNGDLEEIFLHPGESVIQVSGKYKWYLKKLVFVTDKGRYLSFGKDSGTSFNAVPLHPNTVLRFISGRSGSLIDAIGLHWDVYPTSCSRCSRGSDDDDKAEPRGPTIKPCPPCKCPAPNLLGGPSVFIFPPKIKDVLMISLSPIVTCVVVDVSEDDPDVQISWFVNNVEVHTAQTQTHREDYNSTLRVVSALPIQHQDWMSGKEFKCKVNNKDLPAPIERTISKPKGSVRAPQVYVLPPPEEEMTKKQVTLTCMVTDFMPEDIYVEWTNNGKTELNYKNTEPVLDSDGSYFMYSKLRVEKKNWVERNSYSCSVVHEGLHNHHTTKSFSRTPGKRTYHHHHHHARKLTR"}},
  "experiment_in_all_cases": "glycan array binding signal (z-score within array); higher = stronger binding",
  "conditions_in_all_cases": "glycan notation: IUPAC condensed, linker removed",
  "key": {"Glc(a1-6)Glc(a1-6)Glc": {"molecular_target": "Glc(a1-6)Glc(a1-6)Glc", "procedure,_shortened": "(§1)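 From the Consortium for Functional Glycomics database, 3228 arrays were curated, keeping only those whose protein sequence was available. Binding is given as a within-array Z-score averaged across arrays sharing a protein sequence and across linkers. Negative Z-scores can be read as non-binding.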"}, "Glc(b1-4)Glc": {"molecular_target": "Glc(b1-4)Glc", "procedure,_shortened": "as §1"}, "Glc(b1-6)Glc": {"molecular_target": "Glc(b1-6)Glc", "procedure,_shortened": "as §1"}, "GlcA(b1-3)Gal": {"molecular_target": "GlcA(b1-3)Gal", "procedure,_shortened": "as §1"}, "GlcA(b1-3)GlcNAc": {"molecular_target": "GlcA(b1-3)GlcNAc", "procedure,_shortened": "as §1"}, "GlcA(b1-6)Gal": {"molecular_target": "GlcA(b1-6)Gal", "procedure,_shortened": "as §1"}, "[1]": {"molecular_target": "GlcNAc(a1-3)Gal(b1-4)GlcNAc", "procedure,_shortened": "as §1"}, "[2]": {"molecular_target": "GlcNAc(a1-4)Gal(b1-3)GlcNAc", "procedure,_shortened": "as §1"}, "[3]": {"molecular_target": "GlcNAc(a1-4)Gal(b1-4)GalNAc", "procedure,_shortened": "as §1"}, "[4]": {"molecular_target": "GlcNAc(a1-4)Gal(b1-4)GlcNAc", "procedure,_shortened": "as §1"}, "[5]": {"molecular_target": "GlcNAc(a1-4)Gal(b1-4)GlcNAc(b1-3)Gal(b1-4)Glc", "procedure,_shortened": "as §1"}, "[6]": {"molecular_target": "GlcNAc(a1-4)Gal(b1-4)GlcNAc(b1-3)Gal(b1-4)GlcNAc", "procedure,_shortened": "as §1"}, "[7]": {"molecular_target": "GlcNAc(a1-4)Gal(b1-4)GlcNAc(b1-3)Gal(b1-4)GlcNAc(b1-3)Gal(b1-4)GlcNAc", "procedure,_shortened": "as §1"}, "[8]": {"molecular_target": "GlcNAc(a1-4)Gal(b1-4)GlcNAc(b1-3)Gal(b1-4)[Fuc(a1-3)]GlcNAc(b1-3)Gal(b1-4)[Fuc(a1-3)]GlcNAc", "procedure,_shortened": "as §1"}, "[9]": {"molecular_target": "GlcNAc(a1-6)Gal(b1-4)GlcNAc", "procedure,_shortened": "as §1"}, "[10]": {"molecular_target": "GlcNAc(b1-2)Gal(b1-3)GalNAc", "procedure,_shortened": "as §1"}, "[11]": {"molecular_target": "GlcNAc(b1-2)Man(a1-3)[GlcNAc(b1-2)Man(a1-6)]Man(b1-4)GlcNAc(b1-4)GlcNAc", "procedure,_shortened": "as §1"}, "[12]": {"molecular_target": "GlcNAc(b1-2)Man(a1-3)[GlcNAc(b1-2)Man(a1-6)]Man(b1-4)GlcNAc(b1-4)[Fuc(a1-6)]GlcNAc", "procedure,_shortened": "as §1"}, "[13]": {"molecular_target": "GlcNAc(b1-2)[GlcNAc(b1-4)]Man(a1-3)[GlcNAc(b1-2)Man(a1-6)]Man(b1-4)GlcNAc(b1-4)GlcNAc", "procedure,_shortened": "as §1"}, "GlcNAc(b1-3)Gal": {"molecular_target": "GlcNAc(b1-3)Gal", "procedure,_shortened": "as §1"}, "[14]": {"molecular_target": "GlcNAc(b1-3)Gal(b1-3)GalNAc", "procedure,_shortened": "as §1"}, "GlcNAc(b1-3)Gal(b1-4)Glc": {"molecular_target": "GlcNAc(b1-3)Gal(b1-4)Glc", "procedure,_shortened": "as §1"}, "[15]": {"molecular_target": "GlcNAc(b1-3)Gal(b1-4)GlcNAc", "procedure,_shortened": "as §1"}, "[16]": {"molecular_target": "GlcNAc(b1-3)Gal(b1-4)GlcNAc(b1-3)Gal(b1-4)GlcNAc", "procedure,_shortened": "as §1"}, "GlcNAc(b1-3)GalNAc": {"molecular_target": "GlcNAc(b1-3)GalNAc", "procedure,_shortened": "as §1"}, "GlcNAc(b1-3)Man": {"molecular_target": "GlcNAc(b1-3)Man", "procedure,_shortened": "as §1"}, "[17]": {"molecular_target": "GlcNAc(b1-3)[GlcNAc(b1-4)][GlcNAc(b1-6)]GlcNAc", "procedure,_shortened": "as §1"}, "[18]": {"molecular_target": "GlcNAc(b1-3)[GlcNAc(b1-6)]Gal(b1-4)GlcNAc", "procedure,_shortened": "as §1"}, "[19]": {"molecular_target": "GlcNAc(b1-3)[GlcNAc(b1-6)]GalNAc", "procedure,_shortened": "as §1"}, "[20]": {"molecular_target": "GlcNAc(b1-4)Gal(b1-4)GlcNAc", "procedure,_shortened": "as §1"}, "GlcNAc(b1-4)GlcNAc": {"molecular_target": "GlcNAc(b1-4)GlcNAc", "procedure,_shortened": "as §1"}, "[21]": {"molecular_target": "GlcNAc(b1-4)GlcNAc(b1-4)GlcNAc", "procedure,_shortened": "as §1"}, "[22]": {"molecular_target": "GlcNAc(b1-4)GlcNAc(b1-4)GlcNAc(b1-4)GlcNAc(b1-4)GlcNAc", "procedure,_shortened": "as §1"}, "[23]": {"molecular_target": "GlcNAc(b1-4)GlcNAc(b1-4)GlcNAc(b1-4)GlcNAc(b1-4)GlcNAc(b1-4)GlcNAc", "procedure,_shortened": "as §1"}, "[24]": {"molecular_target": "GlcNAc(b1-4)[GlcNAc(b1-6)]GalNAc", "procedure,_shortened": "as §1"}, "[25]": {"molecular_target": "GlcNAc(b1-6)Gal(b1-4)GlcNAc", "procedure,_shortened": "as §1"}, "GlcNAc(b1-6)GalNAc": {"molecular_target": "GlcNAc(b1-6)GalNAc", "procedure,_shortened": "as §1"}, "GlcNAc3Prop(b1-4)GlcNAc": {"molecular_target": "GlcNAc3Prop(b1-4)GlcNAc", "procedure,_shortened": "as §1"}},
  "note": "Some of the results follow.",
  "data": [
    {"binder": "B1", "values": [
      {"measurement": "glycan array binding signal (z-score)", "setting": "Glc(a1-6)Glc(a1-6)Glc", "result": -0.189},
      {"measurement": "glycan array binding signal (z-score)", "setting": "Glc(b1-4)Glc", "result": -0.114},
      {"measurement": "glycan array binding signal (z-score)", "setting": "Glc(b1-6)Glc", "result": -0.162},
      {"measurement": "glycan array binding signal (z-score)", "setting": "GlcA(b1-3)Gal", "result": -0.184},
      {"measurement": "glycan array binding signal (z-score)", "setting": "GlcA(b1-3)GlcNAc", "result": -0.091},
      {"measurement": "glycan array binding signal (z-score)", "setting": "GlcA(b1-6)Gal", "result": -0.11},
      {"measurement": "glycan array binding signal (z-score)", "setting": "[1]", "result": -0.136},
      {"measurement": "glycan array binding signal (z-score)", "setting": "[2]", "result": -0.1},
      {"measurement": "glycan array binding signal (z-score)", "setting": "[3]", "result": -0.185},
      {"measurement": "glycan array binding signal (z-score)", "setting": "[4]", "result": 0.004},
      {"measurement": "glycan array binding signal (z-score)", "setting": "[5]", "result": -0.171},
      {"measurement": "glycan array binding signal (z-score)", "setting": "[6]", "result": -0.217},
      {"measurement": "glycan array binding signal (z-score)", "setting": "[7]", "result": -0.168},
      {"measurement": "glycan array binding signal (z-score)", "setting": "[8]", "result": -0.165},
      {"measurement": "glycan array binding signal (z-score)", "setting": "[9]", "result": -0.11},
      {"measurement": "glycan array binding signal (z-score)", "setting": "[10]", "result": -0.157},
      {"measurement": "glycan array binding signal (z-score)", "setting": "[11]", "result": -0.175},
      {"measurement": "glycan array binding signal (z-score)", "setting": "[12]", "result": -0.092},
      {"measurement": "glycan array binding signal (z-score)", "setting": "[13]", "result": -0.152},
      {"measurement": "glycan array binding signal (z-score)", "setting": "GlcNAc(b1-3)Gal", "result": -0.231},
      {"measurement": "glycan array binding signal (z-score)", "setting": "[14]", "result": -0.217},
      {"measurement": "glycan array binding signal (z-score)", "setting": "GlcNAc(b1-3)Gal(b1-4)Glc", "result": -0.227},
      {"measurement": "glycan array binding signal (z-score)", "setting": "[15]", "result": -0.225},
      {"measurement": "glycan array binding signal (z-score)", "setting": "[16]", "result": -0.198},
      {"measurement": "glycan array binding signal (z-score)", "setting": "GlcNAc(b1-3)GalNAc", "result": -0.21},
      {"measurement": "glycan array binding signal (z-score)", "setting": "GlcNAc(b1-3)Man", "result": 1.09},
      {"measurement": "glycan array binding signal (z-score)", "setting": "[17]", "result": -0.134},
      {"measurement": "glycan array binding signal (z-score)", "setting": "[18]", "result": -0.179},
      {"measurement": "glycan array binding signal (z-score)", "setting": "[19]", "result": -0.129},
      {"measurement": "glycan array binding signal (z-score)", "setting": "[20]", "result": -0.225},
      {"measurement": "glycan array binding signal (z-score)", "setting": "GlcNAc(b1-4)GlcNAc", "result": -0.206},
      {"measurement": "glycan array binding signal (z-score)", "setting": "[21]", "result": -0.148},
      {"measurement": "glycan array binding signal (z-score)", "setting": "[22]", "result": -0.078},
      {"measurement": "glycan array binding signal (z-score)", "setting": "[23]", "result": 0.816},
      {"measurement": "glycan array binding signal (z-score)", "setting": "[24]", "result": -0.08},
      {"measurement": "glycan array binding signal (z-score)", "setting": "[25]", "result": -0.177},
      {"measurement": "glycan array binding signal (z-score)", "setting": "GlcNAc(b1-6)GalNAc", "result": -0.087},
      {"measurement": "glycan array binding signal (z-score)", "setting": "GlcNAc3Prop(b1-4)GlcNAc", "result": -0.188}
    ]}
  ]
}
